Reference: PubChem BioAssay AID1814 (Broad Institute, 2009)
The whole screen tested about 300,000 compounds, of which about 22,000 (7.3%) were called active. Inconclusive results, whose numbers are uncertain, are shown with a selection of clear calls. Rule as the data show it: active = activity score below about -60%; inconclusive = mostly about -28% to -61%; inactive = positive scores.

Assay: Activators via SNCA 5'UTR binding, MLPCN (AID 1814)
Conditions: alpha-synuclein 5'UTR reporter, activators screen; active compounds read low; tested at 7.5 µM

Activity score, inactive:
COc1ccc(C(=O)NC(=S)NNC(=O)c2cnccn2)cc1OC 90.5%
O=C(Cc1ccc(N2CCNC2=O)cc1)N1CCCC(Nc2cccc(F)c2)C1 (configuration not stated) 63.8%
Cc1cccc2sc(NNC(=O)c3ccc(S(=O)(=O)N4CCCC(C)C4)cc3)nc12 (configuration not stated) 77.6%
O=C(CSc1nnc(-c2ccc(Br)cc2)o1)Nc1cccc(C(=O)O)c1 97.9%
O=C(COC(=O)[C@@H]1CCCN1S(=O)(=O)c1ccc(Cl)cc1)NCC(F)(F)F 31.3%
CCCCN(CCCC)S(=O)(=O)c1ccc(C(=O)Nc2nnc(COC)o2)cc1 61.7%
Cn1c2c(c(=O)n(C)c1=O)C(C(F)(F)F)(C(F)(F)F)N=C(c1ccc(Cl)cc1)N2 99.4%
Cc1cccc(NC(=O)c2ccccc2OCC(=O)c2ccc(F)cc2)c1 29.8%
CCC[C@H](CN[C@@H](CNC)[C@H](C)CC)NCCc1cc(C(F)(F)F)cc(C(F)(F)F)c1 124%
COc1cccc(/C=N/NC(=O)c2cc(-c3cccn3C)n[nH]2)c1O 94.7%
Cc1ccc(S(=O)(=O)Nc2cccc3cccnc23)c([N+](=O)[O-])c1 70.9%
Cc1ccc(-n2nc(C)c3c(C)c(CCC(=O)Nc4ccc(CN5CCCC5)cc4)c(C)nc32)cc1 104%
CCOC(=O)c1cc(-c2ccccc2)sc1NC(=O)COC(=O)c1cccc(S(N)(=O)=O)c1 71.6%
COc1ccc(/C=C2\SC(=S)N(CCCC(=O)N3CCCCC3CCO)C2=O)cc1 (configuration not stated) 67.9%
O=C(CNc1ccccc1)N/N=C/c1c(O)ccc2ccccc12 68.6%
CCN(CC)S(=O)(=O)c1cccc(C(=O)N/N=C(\C)c2ccc(O)cc2O)c1 111%
CC(C)Oc1ccc(C(=O)Nc2nc3ccccc3[nH]2)cc1 81.5%
CC(C)c1ccc2c(c1)CCC1C(C)(CN)CCCC21C (configuration not stated) 96.7%
CCOc1ccccc1C(=O)N1CCN(c2cccc(Cl)c2)CC1 95.1%
CCOc1ccc(N(CC(=O)Nc2ccccc2C)S(=O)(=O)c2c(C)noc2C)cc1 58.7%
COc1cc(C2C3=C(Nc4ncnn42)c2ccccc2CC3)cc(OC)c1OC (configuration not stated) 82.6%
Cc1nc(SCCC(=O)O)c2cc(-c3ccccc3)sc2n1 67.1%

Activity score, inconclusive:
O=C(Cc1ccccc1)Nn1c(O)c(/C=C2\C=Nc3ccccc32)sc1=S -46.3%
COc1ccc(-c2nnc(-c3ccc(OCC(C)C)cc3)o2)cc1 -26.5%
CC(=O)c1cc2c(cc1NC(=O)c1cnc(C)cn1)OCO2 -37.2%
O=C(CC1NCCc2ccccc21)Nc1ccc(Cl)cc1 (configuration not stated) -58.8%
C=CCN(CC=C)S(=O)(=O)c1ccc(NC(=S)NC(=O)/C=C/c2ccccc2)cc1 -56.8%
CN(Cc1cccnc1)C(=O)c1ccc2nc(Cc3ccccc3F)oc2c1 -61.4%
O=S(=O)(Nc1nc2ccc(S(=O)(=O)N3CCCCC3)cc2s1)c1ccccc1 -39.9%
Cc1noc(C)c1CSCC(=O)OCc1nc2ccccc2c(=O)n1CC#N -44%
COc1c([N+](=O)[O-])c(=O)oc2ccccc12 -11.5%
c1cncc(-c2nnc(-c3cccs3)o2)c1 -53.4%
Cc1cc(-n2c(C)cc(C(=O)CSc3ncnc4ccccc34)c2C)no1 -40.4%
Cc1ccc(Oc2ccc(C=O)cn2)cc1 -42.3%
O=C(/C=C/c1ccccc1)NC(=S)Nc1ncccn1 -61.3%
CN(C(=O)COc1cc(=O)n(C)c2ccccc12)c1ccc(Br)cc1 -39.9%
Nc1nnc(SCCOc2ccc(Br)cc2)s1 -55.4%
COc1ccc2c(c1)C(C)CC(C)(C)N2C(=O)NC1CCCCC1 (configuration not stated) -51.2%
CC(C)(C)C1CCC(=NNc2nc3ccccc3[nH]2)CC1 (configuration not stated) -47.3%
Cc1ccccc1C(=O)O/N=C(\N)c1ccncc1 -59.8%
Cc1cc(NC(=O)c2n[nH]c(=O)c3ccccc23)ccc1Br -56%
O=C(c1cccc(S(=O)(=O)NCc2ccccc2)c1)N1CCCC(C(F)(F)F)C1 (configuration not stated) -56.6%
CCCN1C(=O)/C(=C/c2ccncc2)SC1=S -48.5%
CCN(CC(=O)Nc1sc2c(c1C#N)CCC(C)C2)CC(=O)NC1CCS(=O)(=O)C1 (configuration not stated) -35.8%
CCOc1ccccc1-c1nnc(SCC(=O)Nc2ccccc2)o1 -48.7%
O=C(NC(=S)Nc1cccc(NC(=S)NC(=O)c2ccco2)n1)c1ccco1 -48.6%
O=C(c1cc(-c2ccccc2)on1)N1CCCC1 -60.4%
CCOC(=O)C1(Cc2cccc(OC)c2)CCN(CC2CC=CCC2)CC1 (configuration not stated) -45.6%
CNCc1ccccc1OCC(=O)Nc1ccccc1OC -53.9%
COc1cc(C(=O)NCc2cccnc2)ccc1OCC(=O)Nc1cccc(C(F)(F)F)c1 -37.7%
O=C(/C=C/c1cccc([N+](=O)[O-])c1)Nc1ccccn1 -61.4%
CC(C)CNC(=O)COc1ccccc1[N+](=O)[O-] -36.7%
C=CCOC(=O)c1sc(NC(=O)c2ccc(OC)cc2)nc1C -46.7%
CSc1nnc([C@H](Cc2c[nH]c3ccccc23)NC(=O)OC(C)(C)C)o1 -53.6%
Cc1ccc(NC(=O)c2cnn(-c3ccccc3)c2NC(=O)c2ccco2)cc1C -46.2%
Cc1cc(C)c2c(N)c(C(=O)NCC3CCCCC3)sc2n1 -60.3%
CCCOc1cccc(C(=O)Nc2cccnc2)c1 -44.6%
Cc1cc(C(=O)CN2C(=O)NC3(CCCCC3)C2=O)c(C)n1Cc1ccco1 -56.9%
O=C(CSc1nc(C(F)(F)F)cc(=O)[nH]1)Nc1ccc2c(c1)OCCO2 -48.9%
CC(C)(C)c1ccc(NC(=O)C(=O)C2C(=O)Nc3ccccc32)cc1 (configuration not stated) -55.8%
CC(=O)c1cc(C(=O)c2ccccc2)sc1Nc1ccccc1 -58.1%
COc1ccccc1-c1cc(C(=O)NCc2cccs2)no1 -45.5%
COc1ccc(Oc2ccc(N/C=C3\CCCC3=O)cc2)cc1 -52.7%
CCOC(=O)c1[nH]c2ccc(OC)cc2c1NC(=S)N1CCN(c2cccc(C)c2C)CC1 -57.6%
O=C(NC(=O)c1ccccc1O)c1ccc2c(c1)CCO2 -47.9%
N#C/C(=C\c1ccccn1)c1ccccn1 -50.5%
Cc1ccc(NC(=O)c2cc(-c3cc(C)c(C)cc3O)n[nH]2)cc1C -59.9%
N#Cc1ccc(COC(=O)c2ccccn2)cc1 -36%
C=CCN1C(=O)S/C(=C\c2ccc3c(c2)n(C)c(=O)n3C)C1=O -43.1%
C=CCn1c(SCC(=O)NCC)nnc1-c1cc2c(s1)CCC(CC)C2 (configuration not stated) -54.2%
Cc1cc(C)c2nc(N3CCN(C)CC3)c(C#N)cc2c1 -48.8%
COc1ccccc1NC(=O)c1ccc([N+](=O)[O-])cc1[N+](=O)[O-] -44.6%
CC(C)Sc1nnc(NC(=O)C2CC2)s1 -57.6%
COc1cccc(CC(=O)Nc2nc(C)cs2)c1 -59.8%
Cc1ccc(NC(=O)c2sccc2C)nc1 -61.3%
CN1CCN(NC(=O)CN2C(=O)/C(=C/c3ccccc3Cl)SC2=S)CC1 -55.1%
O=C(N/N=C/c1ccc[nH]1)c1c[nH]c2ccccc12 -55.5%
Cc1nn(-c2ccccc2)c(C)c1/C=N/Nc1nc2ccccc2[nH]1 -55.9%

Activity score, active:
N#Cc1c(N2CCOCC2)nsc1-c1ccccc1 -67.7%
COc1ccc(CNC(=O)c2ccc(C(C)(C)C)cc2)cc1 -126%
CN(c1ccccc1)S(=O)(=O)c1cc(C(=O)OCC(N)=O)ccc1Cl -85.1%
Cn1cccc1C(=O)C(=O)Nc1cccc(Cl)c1Cl -148%
CCCc1cc2c(cc1NC(=O)c1ccc(C(C)(C)C)cc1)OCO2 -74.3%
CCC(=O)Nc1ccc(/C=C(\C(C)=O)C(=O)c2ccccc2)cc1 -77.5%
O=C(NCCc1ccc(F)cc1)Nc1ccccc1 -70.1%
O=C1CN(c2nc(-c3cccs3)nc3sc4c(c23)CCCC4)CCN1 -109%
O=C1c2cccc3c(N4CCCCC4)ccc(c23)C(=O)N1c1cccc(O)c1 -77.6%
Clc1ccccc1/C=C/c1ccnc2ccccc12 -109%
CCCC(=O)Nc1ccc(C#Cc2ccccc2)cc1 -67.5%
CCc1ccc2oc(-c3ccc(OC)cc3)cc(=Nc3c(C)n(C)n(-c4ccccc4)c3=O)c2c1 -77.3%
CSc1ccccc1C(=O)Nc1ccc(C)c(C)c1 -130%
CCOC(=O)c1c(C)oc2c1c1c(c3ccccc32)OCN(CCCC(=O)O)C1 -108%
